In all, about 33,000 sequences were measured (“E-score (-0.5 to 0.5)”: median about -0.021, highest 2% from about 0.32 on). This is one part of the list.
molecular target: T1, Zap1 (UniProt P47043); assay: PBM E-score (8-mer binding enrichment) (E-score (-0.5 to 0.5)); higher = stronger / more preferred TF binding; most listed sequences are background and not binding sites; conditions: protein concentration: 200 nM; construct: GST-full length
T1 sequence: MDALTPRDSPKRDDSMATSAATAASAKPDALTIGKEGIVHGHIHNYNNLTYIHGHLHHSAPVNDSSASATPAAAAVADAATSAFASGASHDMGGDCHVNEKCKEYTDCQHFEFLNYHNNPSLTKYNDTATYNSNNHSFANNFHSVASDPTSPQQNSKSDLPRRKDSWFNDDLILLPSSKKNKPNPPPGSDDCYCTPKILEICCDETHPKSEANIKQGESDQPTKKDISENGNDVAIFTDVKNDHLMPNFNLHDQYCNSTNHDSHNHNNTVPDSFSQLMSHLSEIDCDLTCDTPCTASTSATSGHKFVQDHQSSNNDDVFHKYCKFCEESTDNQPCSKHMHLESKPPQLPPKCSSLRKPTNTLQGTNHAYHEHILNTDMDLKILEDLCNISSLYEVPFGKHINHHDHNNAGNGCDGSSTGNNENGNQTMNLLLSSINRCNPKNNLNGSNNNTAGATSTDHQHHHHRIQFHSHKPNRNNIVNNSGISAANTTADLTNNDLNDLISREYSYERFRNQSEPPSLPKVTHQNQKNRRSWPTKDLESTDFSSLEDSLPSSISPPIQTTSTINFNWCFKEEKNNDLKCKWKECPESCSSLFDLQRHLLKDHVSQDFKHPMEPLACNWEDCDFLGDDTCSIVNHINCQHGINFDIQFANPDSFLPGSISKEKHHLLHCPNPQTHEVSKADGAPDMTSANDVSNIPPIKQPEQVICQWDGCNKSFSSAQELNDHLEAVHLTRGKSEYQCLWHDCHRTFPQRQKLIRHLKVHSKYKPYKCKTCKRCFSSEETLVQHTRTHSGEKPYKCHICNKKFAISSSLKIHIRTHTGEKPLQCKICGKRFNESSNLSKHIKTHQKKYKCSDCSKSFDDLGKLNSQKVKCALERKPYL
In short: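 Yeast transcription factors, full-length or as DNA-binding domains, were expressed with a GST tag using PURExpress in vitro transcription/translation. At about 100-200 nM they were applied to universal all-10-mer Agilent arrays, double-stranded by primer extension on fresh or once-stripped slides. Fluorescent anti-GST detected bound protein, and masliner normalised the scans. E-scores for ungapped eight-base words, pooled with reverse complements, came from the Universal PBM Analysis Suite.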

Sequence	PBM E-score
AAAGCGTA	-0.194
ACTAAAGC	-0.00309
ACTCTCAG	-0.135
ACCCTGCT	0.277
CGTCGACA	0.0241
GACAAGCC	-0.134
GGAATTAA	0.0623
GGTCAGAA	0.181
CCGGAAAC	-0.0386
CATACAAG	0.00754
CTCCGAAC	-0.196
ATGTGTTG	0.164
CCATGAGC	-0.197
AGGCTTGG	-0.185
AACCCGCA	0.314
GAGTCGAC	-0.158
ATAAATCG	-0.0422
AGAAAGTC	-0.00983
ACATAGTC	-0.102
GGTTGCTA	0.102
ACCTGTGC	0.154
GTCTTCGA	-0.069

Sequence	PBM E-score
CGAGTGAG	-0.0546
TCTCCAGA	-0.0829
AAGAGTGA	0.0335
GCGTCATA	0.13
AGAACACT	-0.0722
CTACCAAA	0.185
GACTGGGA	-0.0785
GACAGGGC	-0.0908
ATAGCGAG	-0.152
CTCCCAAC	-0.00146
CTCGTCGC	-0.286
AGGTCAAA	0.159
ACTCAGCA	-0.203
AGAGGCCA	0.0111
GACTCCTC	-0.192
AGTGCGAG	-0.201
CCGGGATC	0.0554
TCGTCTAA	0.0796
TGTCCCAA	0.129
AGCCCGAT	-0.149
ATCGTGGG	0.0813
CGTATCTC	-0.124

Sequence	PBM E-score
ATAGTCTG	-0.0831
AGCGGTAA	0.167
ATAGGCAC	-0.164
ACTATACG	-0.0651
AGTTAGCA	-0.0471
ACCAGAGG	0.0682
ACAATAGG	-0.0709
AATAAAGA	0.018
AATGCATA	0.0278
CACAGCCC	-0.199
CAAACCGA	0.0256
GTGAAGGA	-0.0994
ATGAACAC	0.178
AAAAATTT	0.123
GCAAAGAA	0.199
ACGAAAAT	0.143
AACAGGGG	0.0931
GCTTCGCA	-0.225
ATACGATG	-0.0413
AGGGCAAG	-0.086
GAGCGAGC	0.0767
ACGTATGG	0.0654

Sequence	PBM E-score
ACTGTCTA	-0.139
ACTTCAAG	0.00926
ACCGTCTC	0.105
CCGTTGAC	-0.131
AAAGATCA	0.12
ACCGACCA	0.175
ATCAAGGA	0.0875
ACACCTAC	0.105
CCTTTCCC	-0.154
ATGTAAAA	-0.0176
ACGATTGG	-0.106
CCATCTCG	-0.102
CTGGTGTA	-0.127
AGCGGTTA	0.405
AGGGAGCG	-0.11
ATGCCTTC	-0.34
CATACCGG	-0.0293
ATATTCAT	0.07
AAAATCAG	0.0163
CAAGGTAA	0.191
CTTATCAA	0.0516
CTCTTATC	-0.0224

Sequence	PBM E-score
ATGGATTG	-0.0434
GCTCTACA	-0.00163
AGTACTAC	0.219
AGAGAAGC	-0.234
GGCTGGCA	-0.361
AACCATCA	0.199
ATTCATAC	0.153
ACAACAGG	0.0859
GATTTTAA	-0.00742
ATGAGTGC	-0.205
ATGCAAAT	-0.112
CTAAAAAA	0.234
GTCGGATA	-0.0886
ACTATATC	0.173
CATAGCTA	-0.113
CGAGGCCA	0.0701
ATGGAGAG	-0.18
GGGGACCC	0.307
AGGCGACG	-0.0649
AATCTCCT	-0.168
CCCGTGAC	-0.0674

From the supplement of paper PMC3334620
